Source: a compilation of properties of binary mixtures (doi:10.1021/acs.jced.3c00537)
The densities may have been worked out from excess volumes.

Assay: xn = mol fraction of the nth substance listed
Settings: 100 kPa

CC[n+]1ccn(C)c1.COP(=O)([O-])OC + CCO
mass density [kg/m3]
Settings	293.15 K	298.15 K	303.15 K	308.15 K	313.15 K	318.15 K	323.15 K	328.15 K	333.15 K	338.15 K
x1 = 0.0202	821	816	812	–	804	799	795	791	–	782
x1 = 0.0402	848	844	840	836	831	827	823	819	814	810
x1 = 0.0802	895	891	887	883	879	–	871	867	863	–
x1 = 0.1004	915	911	907	903	899	895	891	887	–	879
x1 = 0.1203	934	930	926	–	–	914	911	906	902	898
x1 = 0.1594	966	963	959	955	–	947	943	–	936	932
x1 = 0.2032	997	994	990	986	982	979	975	971	967	964
x1 = 0.3007	1052	1049	–	1041	–	–	1030	1027	1023	1019
x1 = 0.3994	1094	1091	1087	1083	1080	1076	1073	1069	1065	1062
x1 = 0.5013	1128	–	1120	1117	1113	1110	–	1103	1099	1096
x1 = 0.5994	1153	1150	–	1143	–	1136	1133	1129	1126	1122
x1 = 0.7006	–	–	1168	1165	1161	1158	1154	–	–	1144
x1 = 0.8011	1193	–	1186	1182	1179	1176	–	1169	1165	1162
x1 = 0.8988	1207	1204	1200	1197	1194	1190	1187	1184	1180	–
x1 = 1	1220	1217	1214	–	–	1203	1200	1197	–	1190

CCO + CC[n+]1ccn(C)c1.COP(=O)([O-])OC
x2 = 0
Settings	mass density [kg/m3]
293.15 K	790
303.15 K	781
308.15 K	777
313.15 K	772
318.15 K	768
323.15 K	763
333.15 K	754
338.15 K	749

COP(=O)([O-])OC.Cn1cc[n+](C)c1 + CCO
mass density [kg/m3]
Settings	293.15 K	298.15 K	303.15 K	308.15 K	313.15 K	318.15 K	323.15 K	328.15 K	333.15 K	338.15 K
x1 = 0.0201	821	816	812	–	804	–	795	–	786	–
x1 = 0.0402	848	–	840	836	831	827	823	819	814	810
x1 = 0.0803	896	892	888	884	880	876	872	868	864	–
x1 = 0.1005	–	914	–	906	902	898	894	890	–	882
x1 = 0.1193	936	932	928	–	920	917	913	909	905	900
x1 = 0.1597	–	–	–	960	957	953	949	945	–	937
x1 = 0.2006	1004	1000	–	992	988	985	981	977	973	969
x1 = 0.3005	1066	1063	–	1055	1051	–	–	1040	–	1033
x1 = 0.4031	1116	1112	1108	1105	–	1097	1094	1090	1086	1083
x1 = 0.4996	1151	1147	1144	1140	1136	1133	1129	–	1122	–
x1 = 0.6043	1182	1179	1175	1172	1168	1165	1161	1158	1154	1151
x1 = 0.7009	1207	–	1199	1196	1192	–	–	1182	–	1175
x1 = 0.797	–	–	–	1216	–	1209	–	–	1199	1195
x1 = 0.8995	1244	–	1237	–	1230	1227	–	1220	–	1213
x1 = 1	1260	1257	1253	–	1246	–	1240	1236	1233	1229

CCO + COP(=O)([O-])OC.Cn1cc[n+](C)c1
x2 = 0
Settings	mass density [kg/m3]
293.15 K	790
303.15 K	781
313.15 K	772
318.15 K	768
323.15 K	763
333.15 K	754
338.15 K	749
